{"source": "paper PMC6212790", "note": "The other results are listed elsewhere or left out. At the low end of the ranking, values are background and their order means little."}
{"target": "T1, GST-Rok (full length) (UniProt O34857)", "T1 sequence": "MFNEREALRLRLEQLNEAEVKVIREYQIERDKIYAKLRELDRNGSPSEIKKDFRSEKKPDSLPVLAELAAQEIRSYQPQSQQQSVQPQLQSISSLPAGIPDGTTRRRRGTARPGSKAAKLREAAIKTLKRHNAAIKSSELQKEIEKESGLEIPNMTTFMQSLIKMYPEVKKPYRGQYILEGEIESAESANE", "assay": "protein binding microarray;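 also: rank score from −0.5 (least bound) to 0.5 (best bound)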", "conditions": "Rok is a gene silencer of Bacillus subtilis; high values mean tight binding; most listed sequences are background and not binding sites; double strand, one strand shown", "units": {"binding signal": "E-score"}}
{"sequence": "GTGATAAC", "binding signal": 0.0453}
{"sequence": "CACACTGC", "binding signal": -0.0904}
{"sequence": "GTTTCCCA", "binding signal": -0.0949}
{"sequence": "ACAAAAAC", "binding signal": 0.116}
{"sequence": "GCAGTGAC", "binding signal": -0.239}
{"sequence": "CGCCTGTA", "binding signal": 0.156}
{"sequence": "ATCTTATC", "binding signal": 0.202}
{"sequence": "ATGCAAGC", "binding signal": -0.0813}
{"sequence": "ATGACTCC", "binding signal": -0.133}
{"sequence": "GACGTAAC", "binding signal": -0.0445}
{"sequence": "TAAACGTA", "binding signal": 0.211}
{"sequence": "ACGAGCGA", "binding signal": -0.0348}
{"sequence": "GCACGCCC", "binding signal": -0.349}
{"sequence": "CGGCAAAG", "binding signal": -0.322}
{"sequence": "ACGAGCAG", "binding signal": -0.126}
{"sequence": "AGGTTCCA", "binding signal": -0.241}
{"sequence": "ATGTGCAG", "binding signal": -0.0663}
{"sequence": "ACTGTGCC", "binding signal": -0.0831}
{"sequence": "ACCTAGGT", "binding signal": 0.0061}
{"sequence": "ATTCGTAA", "binding signal": 0.146}
{"sequence": "GCGACAGA", "binding signal": 0.0157}
{"sequence": "AACATTCT", "binding signal": 0.0974}
{"sequence": "CGCTTTGC", "binding signal": -0.144}
{"sequence": "TACCTCAA", "binding signal": 0.23}
{"sequence": "CGCAAGAG", "binding signal": -0.125}
{"sequence": "CGCAAAAG", "binding signal": -0.106}
{"sequence": "CATTCCCA", "binding signal": -0.126}
{"sequence": "AGCCGGAA", "binding signal": -0.0877}
{"sequence": "GATTGAAC", "binding signal": 0.0118}
{"sequence": "ATATCCCA", "binding signal": 0.154}
{"sequence": "AACGAGTG", "binding signal": 0.155}
{"sequence": "CTGGCCTC", "binding signal": -0.374}
{"sequence": "GTAGAAGA", "binding signal": 0.247}
{"sequence": "ACGTGGAT", "binding signal": -0.0483}
{"sequence": "AGATACTA", "binding signal": 0.348}
{"sequence": "ATACTTCC", "binding signal": 0.252}
{"sequence": "AACTCACT", "binding signal": 0.115}
{"sequence": "CAAGCGGG", "binding signal": -0.364}
{"sequence": "CGCGAGGA", "binding signal": -0.199}
{"sequence": "GAGGCTTA", "binding signal": -0.154}
{"sequence": "CTACCATC", "binding signal": 0.396}
{"sequence": "CAACCGCG", "binding signal": -0.197}
{"sequence": "AAAAACCC", "binding signal": 0.0268}
{"sequence": "CACAAGCG", "binding signal": 0.0618}
{"sequence": "AGCCGTGA", "binding signal": -0.106}
{"sequence": "AGTTCGTC", "binding signal": 0.0184}
{"sequence": "AAGTTTCT", "binding signal": 0.231}
{"sequence": "AATCGAGG", "binding signal": 0.0626}
{"sequence": "CGTGAGCC", "binding signal": -0.276}
{"sequence": "GCGGGGAC", "binding signal": -0.408}
{"sequence": "CACCCGAA", "binding signal": -0.364}
{"sequence": "CCTTAGGA", "binding signal": -0.114}
{"sequence": "CATCATGC", "binding signal": 0.0531}
{"sequence": "GACGATGA", "binding signal": -0.103}
{"sequence": "ACACATAA", "binding signal": 0.166}
{"sequence": "AAACTTTC", "binding signal": 0.164}
{"sequence": "GCAATTAC", "binding signal": 0.16}
{"sequence": "ACAGTGTG", "binding signal": -0.125}
{"sequence": "AGAATGAG", "binding signal": -0.0236}
{"sequence": "AACGCCGT", "binding signal": -0.0747}
{"sequence": "AATACGAC", "binding signal": 0.16}
{"sequence": "ACTGATCA", "binding signal": 0.0412}
{"sequence": "GTAGTGAA", "binding signal": 0.202}
{"sequence": "ATGTGCGG", "binding signal": -0.0379}
{"sequence": "CCATAACC", "binding signal": -0.0693}
{"sequence": "TATTTTCA", "binding signal": 0.204}
{"sequence": "GCTAATCA", "binding signal": -0.0073}
{"sequence": "ACGATAGC", "binding signal": 0.279}
{"sequence": "AATAAGAC", "binding signal": 0.058}
{"sequence": "ATATCGTA", "binding signal": 0.293}
{"sequence": "GGAGAATA", "binding signal": 0.12}
{"sequence": "AGACGCAT", "binding signal": -0.0322}
{"sequence": "ACACATCT", "binding signal": 0.196}
{"sequence": "ACTGTGAT", "binding signal": 0.154}
{"sequence": "ATCAGCAA", "binding signal": -0.0224}
{"sequence": "GGGGGCAA", "binding signal": -0.248}
{"sequence": "CGTTTTTA", "binding signal": 0.0304}
{"sequence": "AGCTTAGG", "binding signal": 0.072}
{"sequence": "AAGATACC", "binding signal": 0.118}
{"sequence": "AACCGATA", "binding signal": 0.214}
{"sequence": "AGCTGGTG", "binding signal": 0.135}
{"sequence": "CCTGTGGA", "binding signal": -0.117}
{"sequence": "AGAGTCCG", "binding signal": -0.258}
{"sequence": "GATTAGTA", "binding signal": 0.264}
{"sequence": "CGATAAGA", "binding signal": 0.0438}
{"sequence": "CGGAAGTC", "binding signal": 0.0244}
{"sequence": "CCCCTCTC", "binding signal": -0.353}
{"sequence": "TGACGCAA", "binding signal": -0.00909}
{"sequence": "GGAGGAAA", "binding signal": -0.0576}
{"sequence": "CTGTGTGC", "binding signal": -0.104}
{"sequence": "ACGTACGA", "binding signal": 0.0672}
{"sequence": "AACTCAAC", "binding signal": 0.0607}
{"sequence": "AGGACTAG", "binding signal": 0.0412}
{"sequence": "CGATGGGA", "binding signal": -0.259}
{"sequence": "CCCTGGCA", "binding signal": -0.22}
{"sequence": "CCATGCCC", "binding signal": -0.405}
{"sequence": "ACCACCCG", "binding signal": -0.253}
{"sequence": "CAATATCG", "binding signal": 0.08}
{"sequence": "ACAAGTAT", "binding signal": 0.188}
{"sequence": "AGGCCACC", "binding signal": -0.163}
{"sequence": "ACACTTGA", "binding signal": 0.0758}
{"sequence": "AAACTGAT", "binding signal": 0.193}
{"sequence": "CGAGAGAA", "binding signal": 0.0991}
{"sequence": "CCAAAAGA", "binding signal": -0.246}
{"sequence": "CAGTGAGG", "binding signal": -0.101}
{"sequence": "AAAATTAA", "binding signal": 0.254}
{"sequence": "AGCCACAA", "binding signal": 0.0159}
{"sequence": "AAAGAACA", "binding signal": -0.199}
{"sequence": "CAGTCTAA", "binding signal": -0.0991}
